# Reference: PubChem BioAssay AID596 (National Center for Advancing Translational Sciences (NCATS), 2007)
# Several values for one entry are separate records, joined by “and”; a condition that tells them apart may be missing. Identical values can stand only once. Out of some 71,000 compounds screened, about 1,400 (2%) were called active. The shares of active, inactive and inconclusive entries below differ from those in the screen. Calls come from the whole dose curve; as a rule, active = well fitted curve in the direction sought with a large enough effect; inconclusive = small, poorly fitted or top-dose-only effect; inactive = no such curve, though single readings can be large or run the other way. Potencies beside an inconclusive call are fits to weak or partial responses and may not hold up. A structure can be active in one record and inactive in another.
# Target: Microtubule-associated protein tau (Homo sapiens) (UniProt P10636)
# Test: qHTS Assay for Tau Filament Binding;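 note: actives lower thioflavin S fluorescence by blocking filaments or displacing dye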
# Settings: recombinant tau filaments, thioflavin S fluorescence, 15 h, filaments grown with octadecylsulfate alongside compound; series mostly up to 57.1 µM; activity change, negative = inhibition: at the top concentration
# In short: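 His-tagged recombinant human tau (exons 2, 3 and 10 included), 1 uM, was induced to fibrillize by 30 uM sodium octadecylsulfate with compound present. After 15 h at 37 C, thioflavine S fluorescence (ex 450, em 510 nm) was read.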
# % is set by controls: 0 for no effect and ±100 for the full control effect; potency is the fitted concentration of half-maximal effect.
# UniProt P10636, sequence (P10636 whole entry, looked up): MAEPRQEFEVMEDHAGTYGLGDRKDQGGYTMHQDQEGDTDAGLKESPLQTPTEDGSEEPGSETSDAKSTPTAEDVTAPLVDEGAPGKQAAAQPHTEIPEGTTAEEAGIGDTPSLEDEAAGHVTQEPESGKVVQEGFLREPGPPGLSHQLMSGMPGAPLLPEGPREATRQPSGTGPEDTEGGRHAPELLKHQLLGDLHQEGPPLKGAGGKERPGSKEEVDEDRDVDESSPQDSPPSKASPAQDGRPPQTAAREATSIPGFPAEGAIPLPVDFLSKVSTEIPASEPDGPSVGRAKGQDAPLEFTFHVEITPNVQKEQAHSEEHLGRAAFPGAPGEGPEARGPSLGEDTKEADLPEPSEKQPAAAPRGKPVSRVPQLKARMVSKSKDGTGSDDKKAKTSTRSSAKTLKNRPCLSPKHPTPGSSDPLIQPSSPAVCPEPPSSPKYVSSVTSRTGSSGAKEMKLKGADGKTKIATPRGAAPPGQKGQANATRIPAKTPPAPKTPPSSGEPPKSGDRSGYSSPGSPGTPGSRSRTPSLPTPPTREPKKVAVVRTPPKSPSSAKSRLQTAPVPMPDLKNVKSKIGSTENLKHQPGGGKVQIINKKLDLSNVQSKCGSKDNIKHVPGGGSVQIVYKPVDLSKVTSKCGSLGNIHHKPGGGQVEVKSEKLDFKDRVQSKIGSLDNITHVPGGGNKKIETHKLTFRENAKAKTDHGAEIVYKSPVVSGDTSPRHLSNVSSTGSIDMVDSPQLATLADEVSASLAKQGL
Compound,Potency,"activity change, negative = inhibition"
O=S(=O)(c1cccc(-c2nnc(SCc3nc4ccccc4s3)o2)c1)N1CCOCC1,inconclusive: 7.94 µM [decreasing],–
Cc1ccc(S(=O)(=O)N2CCN(C(=O)CN3CCc4ccccc4C3)CC2)cc1,–,inactive: -1.1%
Cc1ccc(CNc2ccc3c(c2)OCO3)c(C)c1,inconclusive: 3.98 µM [decreasing],–
COc1ccc(NC(=O)c2cc3cc(OC)ccc3oc2=N)cc1,inconclusive: 1 µM [decreasing],–
CCCCOC(=O)C(C#N)c1nc2ccccc2nc1N1CCOCC1 (stereo not given),active: 3.98 µM,–
CCCCNc1c(CN)cnc2cc(Cl)ccc12,inconclusive: 3.98 µM [decreasing],–
CCCCCCc1c(C[C@H](N)C(=O)O)o[nH]c1=O,inconclusive: 39.8 µM [decreasing],–
N[C@H](C(=O)O)[C@@H]1[C@@H](C(=O)O)C1(F)F,inconclusive: 39.8 µM [decreasing],–
CC(O)c1c(OCc2ccccc2)ncnc1OCc1ccccc1 (stereo not given),inconclusive: 15.8 µM [decreasing],–
N#C[C@H](Cc1ccc(O)cc1)c1ccc(O)cc1,inconclusive: 39.8 µM [decreasing],–
CC(C)[C@H](CO)Nc1nc(Nc2ccc(C(=O)O)c(Cl)c2)c2ncn(C(C)C)c2n1,inconclusive: 39.8 µM [decreasing],–
NC1(C(=O)O)C[C@@H](C(=O)O)[C@H](C(=O)O)C1,inconclusive: 39.8 µM [decreasing],–
Cn1cccc1C(=O)Nc1nc(-c2ccccn2)cs1,inconclusive: 39.8 µM [decreasing],–
CC(=O)N1CCN(c2ccc(NCc3ccc(C)cc3)cc2)CC1,inconclusive: 31.6 µM [decreasing],–
CC1(C)c2ccccc2N2CCC(=O)NC21/C=C/c1ccco1 (stereo not given),inconclusive: 20 µM [decreasing],–
CCCn1c(CN(C)Cc2ccccc2)nc2c1c(=O)n(C)c(=O)n2C,–,inactive: 4.7%
Cc1ccccc1-c1nc(Nc2ccncc2)c2ccccc2n1,–,inactive: -6%
COC(=O)c1[nH]c2c(c1C)C(=O)CC(c1cccs1)C2 (stereo not given),–,inactive: 20.3%
CN1[C@@H](CC(=O)c2ccccc2)CCC[C@@H]1C[C@@H](O)c1ccccc1,inconclusive: 39.8 µM [decreasing],–
Cl/C(=C\n1cncn1)c1ccc(Cl)cc1Cl,inconclusive: 39.8 µM [decreasing],–
CN(C)C(=O)c1ccc(-c2nc(NCc3ccccc3)c3ccccc3n2)cc1,–,inactive: 4.2%
Cc1ccc2[nH]c3c(c2c1)CCc1cn[nH]c1-3,active: 7.94 µM,–
COc1cccc(-c2nc(N(C)C)c3ccccc3n2)c1,inconclusive: 25.1 µM [decreasing],–
Cc1cccc(-n2ncc3c(NC(C)C)ncnc32)c1,–,inactive: -10.3%
COC(=O)c1ccc2c(=O)n3c(nc2c1)SCC(c1ccccc1)=N3,inconclusive: 5.01 µM [decreasing],–
COc1ccc(CCn2c(=N)c(C(=O)N3CCN(C)CC3)cc3c(=O)n4ccccc4nc32)cc1,active: 15.8 µM,–
C[C@@H]1CNCCN1S(=O)(=O)c1cccc2cnccc12,inconclusive: 39.8 µM [decreasing],–

Compound,Potency,"activity change, negative = inhibition"
O=S(c1ccccc1)c1ccc2nnnn2n1 (stereo not given),inconclusive: 39.8 µM [decreasing],–
c1cncc(-c2cncnc2NCc2cccs2)c1,–,inactive: -5.1%
N[C@@H](C(=O)O)c1ccc(C(=O)O)cc1,inconclusive: 39.8 µM [decreasing],–
CNC1=C(Br)C(=O)c2ccncc2C1=O,active: 15.8 µM,–
COc1ccc(OC)c(-n2cc3c(=O)n(C)c(=O)n(C)c3c2)c1,inconclusive: 25.1 µM [decreasing],–
CCOc1ccc2c(ccc(/C=C\c3cc(C)c4cccnc4c3O)[n+]2C)c1,active: 0.631 µM,–
COc1cc(OC)c(C(=O)Nc2ccc(N(C)C)cc2)cc1OC,inconclusive: 31.6 µM [decreasing],–
COc1ccccc1N1CCN(c2nc(N)c(C#N)c(CC#N)c2C#N)CC1,–,inactive: 16.4%
CCOC(=O)c1cnc2c(Cl)c(Cl)ccc2c1N1CCN(C)CC1,inconclusive: 15.8 µM [decreasing],–
O=C(c1ccc2c(c1)OCO2)[C@@H]1[C@@H]2C(=O)N(C3CCCCC3)C(=O)[C@@H]2C2c3ccccc3C=CN21 (stereo not given in full),inconclusive: 20 µM [decreasing],–
O=C1c2ccccc2C(=O)N1CCC(c1ccc(F)cc1)c1ccco1 (stereo not given),inconclusive: 15.8 µM [decreasing],–
O=C(Cc1ccc(Cl)cc1)Nc1ccc(N2CCN(C(=O)c3ccco3)CC2)cc1,inconclusive: 25.1 µM [decreasing],–
c1nc(NCCc2cnc[nH]2)c2[nH]cnc2n1,–,inactive: 4.9% [at 11.4 µM]
COc1ccc(N2CSC3=C(C#N)C(c4cccc(OC)c4OC)CC(=O)N3C2)cc1 (stereo not given),inconclusive: 25.1 µM [decreasing],–
N[C@@H](CS(=O)O)C(=O)O,inconclusive: 39.8 µM [decreasing],–
CNC(=O)C1(C)C=CC2(CCCCC2)N1C(C)=O (stereo not given),–,inactive: -0.4%
Cc1ccc2c(c1)-c1c(cnn1CC(=O)O)CO2,inconclusive: 12.6 µM [decreasing],–
O=C(NCc1ccco1)c1ccc2c(c1)C(=O)c1ccccc1-2,inconclusive: 31.6 µM [decreasing],–
COc1ccc(C(=O)CN2C(=O)C(C)(C)Oc3ccc(C(=O)N4CCCCCC4)cc32)cc1,–,inactive: -0.5%
CCn1c(=O)[nH]c2cc(Cl)c(Cl)cc21,inconclusive: 39.8 µM [decreasing],–
Cc1c(-c2ccc(O)cc2)nn(-c2ccc(O)cc2)c1-c1ccc(OCCN2CCCCC2)cc1,inconclusive: 39.8 µM [decreasing],–
CCOC(=O)N1CCN(c2c(F)cc3[nH]c(=S)[nH]c3c2Br)CC1,active: 15.8 µM,–
C=CCOC(=O)c1sc(N2C(=O)c3oc4ccccc4c(=O)c3C2c2ccco2)nc1C (stereo not given),active: 10 µM,–
O=C(Nc1c(F)cc(F)cc1Br)c1cc2nc(C(F)F)cc(C(F)F)n2n1,inconclusive: 39.8 µM [decreasing],–
CCN1CCN(C(=O)c2cnn3c(C(F)F)cc(-c4ccc(C)cc4)nc23)CC1,active: 20 µM,–
COc1ccccc1N1CCN(CCCCNC(=O)c2ccc(-c3ccc(C(C)=O)cc3)cc2)CC1,inconclusive: 39.8 µM [decreasing],–
CC(=O)N1CCN(c2ccc(NCc3ccc4c(c3)OCO4)cc2)CC1,inconclusive: 31.6 µM [decreasing],–

Compound,Potency,"activity change, negative = inhibition"
CCSc1nnc(NC(=O)c2nn(C(C)C)c(=O)c3ccccc23)s1,inconclusive: 25.1 µM [decreasing],–
NC(=O)CCCCn1ccc(NC(N)=NCC(F)(F)F)n1,inconclusive: 39.8 µM [decreasing],–
O=C(Nc1ccccc1)[C@@]12C[C@@H]1/C(=N/O)c1ccccc1O2,inconclusive: 39.8 µM [decreasing],–
COc1ccc2occ(C(=O)c3ccc(N=C(C)N(C)C)cc3)c2c1,inconclusive: 20 µM [decreasing],–
Nc1cc(=O)[nH]c(N)n1,inconclusive: 39.8 µM [decreasing],–
COCC(=O)Nc1sc2c(c1C(=O)OC)CCC(C)C2 (stereo not given),–,inactive: 20.3%
COC(=O)C1=C(C)NC(C)=C([N+](=O)[O-])[C@H]1c1ccccc1C(F)(F)F,active: 25.1 µM and active: 31.6 µM,–
CCNc1nc(NC(C)C)nc(N(C#N)CCOc2ccc(Cl)cc2Cl)n1,inconclusive: 39.8 µM [decreasing],–
CCCCCCCCC(=O)NCc1cc(OC)c(O)cc1I,inconclusive: 39.8 µM [decreasing],–
COc1ccc(C(=O)N2CCC3(CCN(C)CC3)CC2)cc1,active: 15.8 µM,–
COc1ccc(OC)c(/C=N/c2oc(-c3ccco3)c(-c3ccco3)c2C#N)c1,inconclusive: 12.6 µM [decreasing],–
COc1cccc2c1C(=O)c1c(O)c3c(c(O)c1C2=O)C[C@@](O)(C(C)=O)C[C@@H]3O[C@H]1C[C@H](N)[C@H](O)[C@H](C)O1,active: 2 µM and active: 126 nM,–
COc1ccc(NC(=O)C2CCCN2S(=O)(=O)c2ccc3c(c2)CCC(=O)N3)c(OC)c1 (stereo not given),active: 25.1 µM,–
N#CC1=C(N)Oc2c(sc3ccccc23)C1c1ccco1 (stereo not given),inconclusive: 1.58 µM [decreasing],–
CC(=O)N1CCc2cc(Br)cc(S(=O)(=O)NCCCN3CCCC(C)C3)c21 (stereo not given),–,inactive: -7.8%
COc1ccc(NS(=O)(=O)c2ccc(I)cc2)cc1N1CCN(C)CC1,active: 39.8 µM,–
CC(C)(C)C(=O)Nc1ccccc1N1CCN(C(=O)c2ccc(Cl)cc2)CC1,inconclusive: 15.8 µM [decreasing],–
O[C@H](CN1CCN(c2cccc(Cl)c2)CC1)C(c1ccccc1)c1ccccc1,active: 39.8 µM,–
Cc1cc(NC(=O)c2cnn3c(C(F)(F)F)cc(-c4ccccc4)nc23)no1,active: 3.16 µM,–
CCOC(=O)c1ccc(Oc2nc(OC)nc(N(C)C)n2)cc1,inconclusive: 39.8 µM [decreasing],–
CCc1ccc2c(c1)[C@]1(C(=O)N2)[C@@H]2C(=O)N(Cc3ccccc3)C(=O)[C@@H]2[C@@H]2CCCN21,active: 20 µM,–
S=C(S)N1CCCC1,inconclusive: 39.8 µM [decreasing],–
COc1ccc(CCNC2=NCCS2)cc1,–,inactive: 2.2%
O=c1oc2c(O)c(O)cc3c(=O)oc4c(O)c(O)cc1c4c23,inconclusive: 39.8 µM [decreasing],–
O=C1CC2(CCCC2)CC(=O)N1CCCCNC[C@H]1COc2ccccc2O1,inconclusive: 39.8 µM [decreasing],–
c1ccc(-c2ccc(N3CCCC4(CCNCC4)C3)cc2)cc1,active: 3.16 µM,–
